Measurements as given in PubChem BioAssay AID588342 (National Center for Advancing Translational Sciences (NCATS), 2011).
About 25,000 (6.9%) of roughly 360,000 compounds were called active. This list was built around the results that the source calls inconclusive (neither active nor inactive); the mix of calls is not that of the screen. Calls follow the shape of the dose curve; as a rule, active = well fitted inhibition curve with a large enough effect; inconclusive = small, poorly fitted or top-dose-only effect; inactive = flat fitted curve, though single readings scatter. Potencies beside an inconclusive call are fits to weak or partial responses and may not hold up.

Each compound was assayed against Luciferin 4-monooxygenase (Photinus pyralis) (UniProt P08659) (assay: qHTS profiling assay for firefly luciferase inhibitor/activator using purifed enzyme and Km concentrations of substrates (counterscreen for miR-21 project)). Conditions: purified FLuc, luminescence inhibition; activity change, negative = inhibition: at 57.5 µM (top of the series).
UniProt P08659, sequence (P08659 whole entry, looked up): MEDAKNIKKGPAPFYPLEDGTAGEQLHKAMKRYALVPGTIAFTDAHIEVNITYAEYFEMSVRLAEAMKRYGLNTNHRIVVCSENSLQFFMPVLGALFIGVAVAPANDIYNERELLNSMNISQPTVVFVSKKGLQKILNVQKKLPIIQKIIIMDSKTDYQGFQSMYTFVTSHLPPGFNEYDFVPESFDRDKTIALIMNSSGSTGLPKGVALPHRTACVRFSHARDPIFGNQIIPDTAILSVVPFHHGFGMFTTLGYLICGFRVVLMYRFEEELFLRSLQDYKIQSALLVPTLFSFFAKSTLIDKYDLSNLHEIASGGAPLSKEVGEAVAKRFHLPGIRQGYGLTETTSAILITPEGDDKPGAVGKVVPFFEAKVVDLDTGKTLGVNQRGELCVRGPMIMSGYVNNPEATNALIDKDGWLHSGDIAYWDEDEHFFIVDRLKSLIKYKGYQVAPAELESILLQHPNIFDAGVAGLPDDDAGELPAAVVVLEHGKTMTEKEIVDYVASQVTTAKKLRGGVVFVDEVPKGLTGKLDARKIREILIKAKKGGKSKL
Excerpt: MLPCN Grant: 1 R21 NS059478-01 (miR-21 grant) Assay Provider: NCGC NCGC Assay Overview: Firefly (Photinus pyralis) luciferase is one of the most commonly used transcriptional reporters for a number of reasons. It is considered one of the more dynamically responsive reporters -that is, responsive to changes in reporter transcription - as it requires no post-translational modifications and is enzymatically active directly after protein synthesis (Wood, 1998). Additionally, the half-life of the luciferase protein is short relative to other reporter-gene products (Wood, 1995). Whereas reporters with long half-lives potentially allow for increased signal due to accumulation of reporter-gene product, once accumulated in the cell, dynamic changes in reporter-gene expression may be difficult to detect(Fan and Wood, 2007; Almond et al., 2004). It has been shown that wild-type P. pyralis luciferase has a half-life of approximately […] hours in mammalian cells (Thompson et al., 1991). Firefly luciferase reporter-gene assays are also generally considered one of the most sensitive assay types (Wood, 1995; Wood, 1998). Although light produced in a bioluminescence reaction is of lower intensity than that produced during fluorescence emission, this is offset by little to no background light inherent to luminescent assays. Thus the luciferase reporter can be expressed at much lower levels than fluorescent proteins while still providing robust signal. # However, it was initially observed, in 1991, by Thompson et al., that compounds that resemble the substrates of firefly luciferase (FLuc) can act as competitive inhibitors of the enzyme, and that these compounds, upon interaction with luciferase in the cell, can actually stabilize the protein and increase its half-life. Accumulated intracellular FLuc protein can be measured as an increase in luminescence signal, upon addition of detection reagents (which contain high concentrations of FLuc substrates) commonly used in high-throughput screening. In cell-based reporter gene assays that use FLuc as the reporter gene to quantitate the potential influence of a given compound against the target biology, this apparent increase in luminescence can mistakenly be interpreted as identification of a compound that is active against the target of interest. This is the case for the miR-21 FLuc reporter gene assay used to identify inhibitors of the miR-21 pathway (PubChem AID 2289) - compounds of interest will inhibit miR-21 biogenesis/expression or activity, and are identified by causing an increase in luminescence, due to increased FLuc translation. However, FLuc inhibitory compounds that stabilize the FLuc protein will give an identical read-out, making it difficult to distinguish compounds that are active against the target from those active against FLuc. Previous profiling work to determine the prevalence of compounds that affect FLuc enzymatic activity (PubChem AID 411) identified that ~3% of the MLSMR library (then at ~72K) inhibited FLuc. […] Since the MLSMR had grown to ~350K compounds, and since it was expected that a significant percentage of compounds found active in the miR-21 FLuc assay would be FLuc inhibitors, the library was screened for activity against FLuc using a biochemical assay of purified FLuc and KM concentrations of FLuc substrates (D-luciferin and ATP).
NCGC Assay Protocol Summary: Reagents: 50mM Tris acetate, pH 7.5; 10mM Mg acetate; 10uM D-luciferin (Sigma #L9504); 10uM ATP; 0.01% Tween-20; 0.05% BSA; 10nM P. pyralis luciferase (Sigma #L9506) Control compounds used were two known firefly luciferase inhibitors (compounds (2) and (5) in Auld et al., 2010), and DMSO. […]
Also: nearly all actives have a fitted effect of over 55% in size.
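For activity change, negative = inhibition in this document: plate controls were vehicle for no effect and reference inhibitor for full effect.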
Tags tell the direction and shape of the fitted curve.

For `NC(=O)c1sc(=S)n2c1[nH]c(=O)c1sccc12`, which Potency is on record?
The Potency was inconclusive: 26.9 µM [inhibitor, single point].

Which Potency does the source give for `O=C(/C=C/c1ccco1)N1CCCC(c2ccccc2)C1` (stereo not drawn) here?
Its Potency is inconclusive: 37.9 µM [inhibitor, partial curve, poor fit].

With `Cc1ccc(-c2nn3c(=O)c(C)nnc3s2)cc1` as the compound, how does the Potency read?
The Potency was inconclusive: 9.53 µM [inhibitor, partial curve].

How did the Potency turn out when `Cc1c(C(=O)N2CCCc3ccccc32)sc2nc(-c3ccccc3)cn12` was run?
The Potency was inconclusive: 23.9 µM [inhibitor, partial curve].

Which Potency does the source give for `CS(=O)(=O)c1ncc(Cl)c(C(=O)N(Cc2ccc(Cl)cc2)Cc2ccco2)n1` here?
Its Potency is inconclusive: 12 µM [inhibitor, partial curve, poor fit].

How did the Potency turn out when `O=C(CSc1ncc(-c2ccccc2)[nH]1)Nc1ccccc1F` was run?
The Potency was active: 26.9 µM.

For `CN(CC(=O)Nc1cccc(F)c1)C(=O)CSc1nc2ccccc2s1`, which Potency is on record?
Its Potency is inconclusive: 37.9 µM [inhibitor, partial curve, poor fit].

Which Potency does the source give for `COc1cc(/C=N/NC(=O)c2cc(C)oc2C)ccc1OCc1ccccc1` here?
The Potency was inconclusive: 21.3 µM [inhibitor, single point].

For `O=C(c1ccc(-c2cccc(C(F)(F)F)c2)o1)N1CCCCCCC1`, which Potency is on record?
The Potency was inconclusive: 26.9 µM [inhibitor, single point].

`CCN(CC)c1ccc(C(=O)OCc2c(C)noc2C)cc1` was tested. Which Potency did it give?
The Potency was inconclusive: 21.3 µM [inhibitor, partial curve, poor fit].

`CC1CCCN(C(=O)Cc2cccc3ccccc23)C1` (stereo not drawn) was tested. Which “activity change, negative = inhibition” value did it give?
Its value is inactive: -1.84%.

With `COc1ccccc1CN1C[C@@H]2C[C@@H](c3ccc4nsnc4c3)N3CCC[C@@]23C1=O` as the compound, how does the Potency read?
Its Potency is inconclusive: 33.8 µM [inhibitor, partial curve, poor fit].

For `O=C(Nc1ccc(-c2nnn(CC(=O)N3CCN(C(=O)c4ccco4)CC3)n2)cc1)c1ccccc1F`, which Potency is on record?
The Potency was active: 10.7 µM.

`CCC(=O)N1CCc2cc(CNS(=O)(=O)c3ccccc3F)ccc21` was tested. Which Potency did it give?
Its Potency is inconclusive: 37.9 µM [inhibitor, partial curve, poor fit].

For `Cc1ccc(-n2cccc2/C=C2/C(=N)N3C(=NC2=O)SN=C3S(C)(=O)=O)cc1`, which Potency is on record?
The Potency was active: 19 µM.

`Cc1cc(C)cc(NS(=O)(=O)c2ccc3[nH]cc(C(=O)N4CCCCC4)c(=O)c3c2)c1` was tested. Which Potency did it give?
Its Potency is inconclusive: 9.53 µM [inhibitor, partial curve].

`Fc1ccc(Br)cc1/C=N/N1CCN(c2ccccc2)CC1` was tested. Which Potency did it give?
Its Potency is inconclusive: 23.9 µM [inhibitor, partial curve, poor fit].

`COc1ccc(/C=C2/CCc3ccccc3C2=O)cc1CN1CCOCC1` was tested. Which Potency did it give?
Its Potency is active: 9.53 µM.

`Cc1noc(-c2ccc(N3CCCCC3C)c([N+](=O)[O-])c2)n1` (stereo not drawn) was tested. Which Potency did it give?
The Potency was inconclusive: 19 µM [inhibitor, single point].

Which Potency does the source give for `Cc1c(C(=O)N2CCCC2)sc(NC(=O)c2ccccc2)c1C#N` here?
Its Potency is inconclusive: 37.9 µM [inhibitor, partial curve, poor fit].

How did the “activity change, negative = inhibition” value turn out when `O=C(Cn1c(-c2cccs2)cc2ccccc21)NCCCN1CCN(c2cccc(Cl)c2)CC1` was run?
The value was inactive: 0.634%.

`CCc1nnc(NC(=O)CSc2nccn2Cc2ccccc2)s1` was tested. Which Potency did it give?
The Potency was inconclusive: 19 µM [inhibitor, partial curve, poor fit].

Which “activity change, negative = inhibition” value does the source give for `CC(=O)NC(CC(=O)c1ccc([N+](=O)[O-])cc1)C(Cl)(Cl)Cl` (stereo not drawn) here?
Its value is inactive: -2.5%.

For `CSc1nc(N)nc(SCC(=O)OC(C)C)c1C#N`, which Potency is on record?
Its Potency is inconclusive: 37.9 µM [inhibitor, partial curve, poor fit].

Which “activity change, negative = inhibition” value does the source give for `CC(Oc1ccccc1Cl)C(=O)N(Cc1cccs1)C1CCS(=O)(=O)C1` (stereo not drawn) here?
Its value is inactive: -1.25%.

How did the Potency turn out when `CCOC(=O)/C=C1\SCC(=O)N1CC(=O)Nc1ccc(C(C)C)cc1` was run?
The Potency was inconclusive: 23.9 µM [inhibitor, single point].

`COc1ccccc1NS(=O)(=O)c1cc(NC(=O)c2cccs2)ccc1N1CCCC1` was tested. Which Potency did it give?
The Potency was inconclusive: 37.9 µM [inhibitor, partial curve, poor fit].

With `O=C(NC1CCS(=O)(=O)C1)c1ccc(S(=O)(=O)N2CCCCC2)cc1` (stereo not drawn) as the compound, how does the “activity change, negative = inhibition” value read?
Its value is inactive: 1.33%.

With `Clc1ccc(COc2ccccc2-c2ccnc3ncnn23)cc1` as the compound, how does the Potency read?
Its Potency is inconclusive: 37.9 µM [inhibitor, single point].

Which Potency does the source give for `Cn1c(CCCOc2ccc(Cl)cc2Cl)nnc1SCC(=O)Nc1nccs1` here?
Its Potency is inconclusive: 4.26 µM [inhibitor, full curve].

For `CC(C)(C)NS(=O)(=O)c1cc(C(=O)O)ccc1Cl`, which “activity change, negative = inhibition” value is on record?
Its value is inactive: -8.21%.

`COc1ccc(/C=N/NC(=O)c2ccc(COc3cccc4cccnc34)cc2)cc1OC` was tested. Which Potency did it give?
Its Potency is inconclusive: 30.1 µM [inhibitor, partial curve, poor fit].

For `COc1ccccc1CCNS(=O)(=O)CCNC(=O)c1ccc2c(c1)OCO2`, which Potency is on record?
Its Potency is inconclusive: 19 µM [inhibitor, partial curve, poor fit].

How did the Potency turn out when `CC(C)CCNC(=O)c1c[nH]c2ccc(S(=O)(=O)Nc3cccc(C(F)(F)F)c3)cc2c1=O` was run?
Its Potency is inconclusive: 13.5 µM [inhibitor, partial curve].

Which “activity change, negative = inhibition” value does the source give for `CCOc1ccc2cc(C#N)c(SCC(=O)N3CCC(C)CC3)nc2c1` here?
The value was inactive: 0.214%.

For `Cc1ccc(C(=O)NC2CCCCCCC2)cc1S(=O)(=O)N1CCOCC1`, which Potency is on record?
Its Potency is inconclusive: 16.9 µM [inhibitor, partial curve].

`Cc1ccc(O)c(NC(=O)c2ccco2)c1` was tested. Which Potency did it give?
The Potency was active: 6.01 µM.

Which “activity change, negative = inhibition” value does the source give for `CCc1ccc[n+](-c2[nH]c(=O)sc2/C=N/N=C(\[O-])CCn2c3ccccc3c3ccccc32)c1` here?
Its value is inactive: -0.358%.

Which Potency does the source give for `CC1=CC(=NOC(=O)/C=C/c2ccccc2)C=C(C)C1=O` here?
The Potency was inconclusive: 21.3 µM [inhibitor, single point].

For `COc1ccc(C(=O)N/C(=C/c2ccc(Cl)cc2)C(=O)Nc2ccc(C(=O)O)cc2)cc1`, which “activity change, negative = inhibition” value is on record?
The value was inactive: 2.52%.

For `O=C(Nc1ccccc1C(=O)Nc1ccc2c(c1)OCO2)c1ccco1`, which Potency is on record?
The Potency was inconclusive: 37.9 µM [inhibitor, single point].

`CCOC(=O)N1CCN(C/C(C)=C/c2ccccc2)CC1` was tested. Which “activity change, negative = inhibition” value did it give?
The value was inactive: -2.34%.

`Cc1ccc(S(=O)(=O)NC(=O)Nc2c(C)cccc2C)cc1` was tested. Which “activity change, negative = inhibition” value did it give?
Its value is inactive: 0.0002%.
